Whole data set: some 33,000 sequences, median “E-score (-0.5 to 0.5)” near -0.016, cut for the highest 2% near 0.31. Some of the results follow.
molecular target: Cst6 (UniProt P40535); experiment: PBM E-score (8-mer binding enrichment) (E-score (-0.5 to 0.5)); higher = stronger / more preferred TF binding; most listed sequences are background and not binding sites; details: protein concentration: 200 nM; construct: GST-DNA-binding domain
Procedure, shortened: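 Masliner-normalised scans of fluorescent anti-GST signal were the basis for scoring. That signal came from GST-tagged yeast transcription factors applied at about 100-200 nM to double-stranded universal all-10-mer Agilent arrays on fresh or once-stripped slides. Each ungapped eight-base word, pooled with its reverse complement, received an E-score from the Universal PBM Analysis Suite.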

Sequence	PBM E-score
GACTTGCA	0.0878
GCAGATAA	-0.103
AATTATGA	0.359
CCAAGTCG	-0.214
CGCCTAAG	-0.248
ATCGTGCG	0.225
CGAACTGA	0.024
CGCCACTA	-0.0104
CGGAGACG	-0.0191
TCCACAGA	0.0321
GAACTCCA	0.0679
CGAAGTCC	-0.311
ATATACGC	0.0619
TGCCCGCA	-0.153
GCCGCTGA	-0.0198
AATGCTGA	0.0858
GACCCTCA	-0.384
GTATAAGA	0.0513
CCCACCTC	-0.263
GAGACAGC	-0.125
AGCTTACG	0.132
AACCTGTA	0.0426
GACCCCGC	-0.155
ACTATTTG	0.11
AGTGGACG	0.225

Sequence	PBM E-score
CCACCCTC	-0.00819
CCCAGGAA	-0.176
ATGCCGAA	0.0887
GAAGACGA	0.0435
ACGTTGCA	0.111
ATTCGAAT	0.095
CTTGGCTA	-0.0737
ACGTTCCA	-0.131
ACGCAATC	0.206
CCTGGACG	-0.309
AACTAGGT	-0.0629
AGCAATTA	0.0966
AACTGAGG	-0.0585
GGTGAACA	-0.212
AATGACTG	0.141
CGAAGCCA	-0.0138
AGGTACAA	0.00431
ATTCCGAC	-0.0105
AACCACAA	0.0619
GCGCCTTA	0.27
GTAACTAC	0.218
AAATCTCT	0.0922
CGACAGAC	-0.211
CGGAGGCA	0.0288
CGCACGTC	0.203

Sequence	PBM E-score
GAGCCGTA	0.296
GCAATTCA	0.11
CACCAATA	0.0154
AGACTAAT	-0.103
ACCAGATA	0.0754
CCCCACTC	-0.286
AGCTGGCG	-0.3
ACCTGCTC	0.014
CATGTAAC	0.014
TAGAGTGA	0.0294
CTTAGGCA	-0.178
ACCGTCAC	0.216
AAGAGGTA	-0.0826
GACATCTC	-0.147
CGTTGTAG	-0.0708
AACGCTTA	-0.0117
TATGCGAA	0.0373
CGCTATTA	0.0489
AGGTATCG	0.0019
CTGGGGTC	-0.164
CAAAGGAA	0.0384
CATTTGGG	-0.0143
AAGTCTAT	0.00477
AAACTGGC	-0.094
ATCAGAAC	-0.0336

Sequence	PBM E-score
AGGGGGTA	-0.392
AGCTGGCA	-0.0922
CCTTGCGA	0.00961
GGCACGTA	0.119
AGTCGGAG	-0.287
GCAACGGC	0.13
ATACGGGG	-0.107
CTTTCGAC	-0.0311
AGCCCTGG	-0.324
GGCCCTCA	-0.266
GCCACTAC	-0.117
ACACATTA	0.126
ACGCATAA	0.197
AATAGTAG	0.124
AAAGTACG	0.222
GTCATACA	0.317
GTTTGATA	0.0835
CGCAATTA	0.18
ACAAAGCT	-0.0124
GCCTTCAA	-0.0837
ATATCGCC	0.0585
AGTGCATG	0.0373
AACACACT	0.0793
CCTAGCGC	-0.12
CAACCGTC	-0.0729

Sequence	PBM E-score
ACTTTCAC	0.133
ATTATACC	0.115
ATATTGCA	0.0649
TAGCCAAA	-0.012
TGACCCAA	0.076
CTCTAGTC	-0.339
ATTACGTG	0.46
CGCTTACG	0.128
GGATCTAA	-0.0815
ACACTCCA	-0.0141
CTAACCCC	-0.359
GAGGGATA	-0.28
GGATCGTA	-0.0792
GTCGGCTA	-0.0184
CTATCAGC	0.0792
CCATTGAA	0.0753
ACACGTCA	0.481
ATTCCTCA	0.121
CCGAAACA	0.0863
CTTGACTA	-0.115
AGCTGGAA	-0.2
AGTCTTTA	0.0157
AGTATCAT	0.2
CTCGCGAC	-0.0397
CCAAGACA	0.0192

Sequence	PBM E-score
TACGGGCA	-0.128
ATAGATAG	0.0604
ACGCACAT	0.123
CTCATGAC	0.335
AGACGGCG	0.305
CCAAGCAG	-0.14
AGGCGTGG	-0.196
AACCAGTC	-0.163
AATCTGTG	0.0752
AACTAGCG	-0.027
ATGAGTGA	0.179
TCAACCCA	-0.0214
AGGTAAGC	-0.177
CAGAAGTA	0.174
CTCGGCTC	-0.144
CATGGGGC	-0.0736
GCAGCCAA	-0.0419
CACTGAGG	0.0321
CCAGAATC	0.00028
GCTCTAAC	-0.047
ATTCTGAC	0.181
ATGTGAAG	0.135
TGTAGTAA	0.14
AATTGAAA	0.288
CATCATTC	0.223

Sequence	PBM E-score
GATAATCA	0.131
ATCGCGAA	-0.0403
AAGGCGAT	0.123
CTGGGCGA	-0.216
CGAGTTGC	-0.0533
ATCGACCG	-0.102
GCCTCACA	0.0735
CGAAATCA	0.269
CGAGAAGA	0.00966
ACTGTTAT	0.17
AAGTAACT	0.204
ATCTGCAT	0.109
CCAGCCGG	-0.252
TCAGTGGA	-0.126
ACAAACGA	0.252
AGTGATAG	0.0241
TGCACGAA	0.131
TCAAAAAA	0.249
CGTTAACA	0.0902
CGGGAGTC	-0.292
ATAACAGG	0.171
AATAACGT	0.264
